# From PubChem BioAssay (Tox21)
# Where “and” joins values, the source holds several entries; their conditions need not be identical. Equal values may be shown once. Inconclusive results, whose numbers are uncertain, are shown with a selection of clear calls. For some of these results: A potency beside an inconclusive call is a rough fit, not a confirmed value. Calls of active or inactive are those of the source. Unless noted, calls follow the shape of the dose curve; as a rule, active = well fitted curve in the direction sought with a large enough effect in the repeat runs; inconclusive = weak or mixed curves; inactive = no such curve, though single readings can be large; an effect the other way counts as inactive or inconclusive.
# Legend:
# [1] = qHTS assay to identify small molecule that activate the aryl hydrocarbon receptor (AhR) signaling pathway - cell viability counter screen (AID 743086); also: nearly all actives have a fitted effect of over 45% in size; also: potency is read from the fitted curve at half-maximal effect;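 as to viability change, negative = cytotoxic: HepG2 liver cells carrying the AhR DRE luciferase reporter; % is scaled to controls: 0 for no effect and ±100 for the full control effect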
# In short: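 HepG2-AhR-luc (HG2L7.5c1) cells, 4000/well, were preincubated 5 h at 37C, exposed to compound in qHTS format for 24 hr at 37C, then given CellTiter-Fluor for 30 min; viability was read as fluorescence in the reporter wells.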
# [2] = molecular target: Peroxisome proliferator-activated receptor gamma (Homo sapiens) (UniProt P37231); assay: qHTS assay to identify small molecule agonists of the peroxisome proliferator-activated receptor gamma (PPARg) signaling pathway (AID 743094; active = well fitted activation curve with a large enough effect in the signal ratio in the repeat runs, not every such curve was filed as active; inconclusive = weak or mixed curves, or effect the other way; inactive = no such curve, though single readings can be large or run the other way; the % refers to the signal ratio; also: potency is read from the fitted curve at half-maximal effect; as to activation: % is scaled to controls: 0 for no effect and ±100 for the full control effect); conditions: HEK293H PPARg-UAS-bla, beta-lactamase FRET ratio, 17 h; activation: at 57 µM (top of the series) unless noted
# In short: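 Agonist activity was taken from a beta-lactamase reporter (FRET substrate, 1 h at room temperature) in HEK293H cells carrying a PPARg UAS-bla construct. Compounds in DMSO were incubated 17 h at 37C after a 5 h cell pre-incubation.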
# [3] = molecular target: Peroxisome proliferator-activated receptor gamma (Homo sapiens) (UniProt P37231); assay: qHTS assay to identify small molecule antagonists of the peroxisome proliferator-activated receptor gamma (PPARg) signaling pathway (AID 743191; calls by dose curve; also: nearly all actives have a fitted effect of over 30% in size; also: potency is read from the fitted curve at half-maximal effect); conditions: HEK293H PPARg-UAS-bla, beta-lactamase ratio, antagonist, 17 h; ratio activity, negative = inhibition: at 62.6 µM (top of the series) unless noted
# In short: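 GeneBLAzer PPARg UAS-bla HEK293H cells carrying a UAS-driven beta-lactamase reporter were plated at 3000 cells/well, preincubated 5 h at 37C, then given compound for 17 h at 37C; LiveBLAzer B/G FRET substrate was read after 1 h at room temperature.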
# [4] = qHTS assay for small molecule agonists of the antioxidant response element (ARE) signaling pathway (AID 743202; active = well fitted activation curve with a large enough effect in the signal ratio in the repeat runs, not every such curve was filed as active; inconclusive = weak or mixed curves, or effect the other way; inactive = no such curve, though single readings can be large or run the other way; the % refers to the signal ratio; also: potency is read from the fitted curve at half-maximal effect; as to activation: % is scaled to controls: 0 for no effect and ±100 for the full control effect); conditions: HepG2 ARE-bla reporter, beta-lactamase FRET, 16 h; activation: at 73.3 µM (top of the series) unless noted
# In short: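 Following a 16 h, 37 C exposure of reporter HepG2 cells (ARE-driven beta-lactamase, 2,000 cells/well) to compounds, FRET substrate was applied for 2 h at room temperature and fluorescence intensity recorded.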
# [5] = qHTS assay to identify small molecule antagonists of the peroxisome proliferator-activated receptor delta (PPARd) signaling pathway - cell viability counter screen (AID 743213); conditions: PPARd-bla HEK293H viability, CellTiter-Glo luminescence, 17 h; viability change, negative = cytotoxic: at 62 µM (top of the series) unless noted; also: nearly all actives have a fitted effect of over 50% in size; also: potency is read from the fitted curve at half-maximal effect
# In short: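 Same-well viability: cells pre-incubated 5 h, dosed with compound plus 300 nM L165041, kept 17 h at 37 C, FRET substrate 2 h RT, then CellTiter-Glo 30 min RT and luminescence.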
# [6] = molecular target: Peroxisome proliferator-activated receptor delta (Homo sapiens) (UniProt Q03181); assay: qHTS assay to identify small molecule antagonists of the peroxisome proliferator-activated receptor delta (PPARd) signaling pathway (AID 743215; active = well fitted inhibition curve with a large enough effect in the signal ratio in the repeat runs, not every such curve was filed as active; inconclusive = weak or mixed curves, or effect the other way; inactive = no such curve, though single readings can be large or run the other way; the % refers to the signal ratio;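 also: cells stimulated with agonist L165041 at 300 nM final during compound exposure; potency is read from the fitted curve at half-maximal effect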); conditions: HEK293H PPARd-UAS-bla, beta-lactamase FRET ratio, antagonist, 17 h; ratio activity, negative = inhibition: at 62 µM (top of the series) unless noted
# In short: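 Agonist L165041 (300 nM final) added with compound to PPARd-bla HEK293H UAS-bla reporter cells; 17 h incubation at 37 C. Read-out: LiveBLAzer FRET substrate, 2 h at room temperature, fluorescence intensity.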
# [7] = qHTS assay to identify small molecule agonists of the farnesoid-X-receptor (FXR) signaling pathway - cell viability counter screen (AID 743218); conditions: FXR-bla HEK293T viability, CellTiter-Glo luminescence, 16 h; viability change, negative = cytotoxic: at 62.6 µM (top of the series) unless noted; also: nearly all actives have a fitted effect of over 45% in size; also: potency is read from the fitted curve at half-maximal effect
# In short: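 Viability counter screen in the same wells: CellTiter-Glo luminescence, 30 min room-temperature incubation, measured after the beta-lactamase read. Cells were GeneBLAzer FXR-UAS-bla HEK 293T, compound-treated 16 h at 37C.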
# [8] = molecular target: Vitamin D3 receptor (Homo sapiens) (UniProt P11473); assay: qHTS assay to identify small molecule agonists of the vitamin D receptor (VDR) signaling pathway (AID 743222; calls by dose curve; also: potency is read from the fitted curve at half-maximal effect); conditions: HEK293T VDR-UAS-bla, beta-lactamase FRET ratio, 16 h; activation: at 63.5 µM (top of the series) unless noted
# In short: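 Agonist mode, beta-lactamase reporter: fluorescence from LiveBLAzer B/G FRET substrate (2 h, room temperature) read after 16 h compound treatment at 37 C of VDR-bla cells, which were pre-incubated 4 h after seeding.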
# [9] = molecular target: Vitamin D3 receptor (Homo sapiens) (UniProt P11473); assay: qHTS assay to identify small molecule antagonists of the vitamin D receptor (VDR) signaling pathway (AID 743223; active = well fitted inhibition curve with a large enough effect in the signal ratio in the repeat runs, not every such curve was filed as active; inconclusive = weak or mixed curves, or effect the other way; inactive = no such curve, though single readings can be large or run the other way; the % refers to the signal ratio; also: potency is read from the fitted curve at half-maximal effect); conditions: VDR-UAS-bla HEK293T, beta-lactamase FRET ratio, 16 h; activity change, negative = inhibition: at 61 µM (top of the series) unless noted
# In short: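 Beta-lactamase reporter read-out: FRET substrate fluorescence after 2 h at room temperature, following 16 h exposure of VDR-bla cells to test compound plus 3 nM (final) 1alpha,25-dihydroxyvitamin D3 agonist at 37C.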
# [10] = qHTS assay to identify small molecule antagonists of the peroxisome proliferator-activated receptor gamma (PPARg) signaling pathway - cell viability counter screen (AID 743194); conditions: PPARg-bla HEK293H viability, CellTiter-Glo luminescence, 17 h, co-treated with 50 nM rosiglitazone; activity change, negative = cytotoxicity: at 62.6 µM (top of the series) unless noted; also: potency is read from the fitted curve at half-maximal effect; nearly all actives have a fitted effect of over 55% in size
# In short: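 PPARg-UAS-bla HEK293H cells were plated, rested 5 h at 37 C, then treated with compounds plus rosiglitazone (50 nM final) for 17 h at 37 C; viability was then read by CellTiter-Glo luminescence after 30 min at room temperature.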
# [11] = qHTS assay to identify small molecule agonists of the peroxisome proliferator-activated receptor delta (PPARd) signaling pathway - cell viability counter screen (AID 743211); conditions: PPARd-bla HEK293H viability, CellTiter-Glo luminescence, 17 h; activity change, negative = cytotoxicity: at 62.6 µM (top of the series) unless noted; also: potency is read from the fitted curve at half-maximal effect; nearly all actives have a fitted effect of over 55% in size
# In short: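 Read-out: CellTiter-Glo luminescence, 30 min RT, measured in the same wells as the beta-lactamase reporter. Cells: GeneBLAzer PPAR delta UAS-bla HEK293H, 3000 cells/well, compound exposure 17 h at 37C.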
# [12] = qHTS assay to identify small molecule agonists of the vitamin D receptor (VDR) signaling pathway - cell viability counter screen (AID 743224); conditions: VDR-bla HEK293T viability, CellTiter-Glo luminescence, 16 h; activity change, negative = cytotoxicity: at 62.6 µM (top of the series); also: potency is read from the fitted curve at half-maximal effect; nearly all actives have a fitted effect of over 50% in size
# In short: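 Counter screen run in the same wells as the VDR-bla reporter assay: CellTiter-Glo luminescence, 30 min at room temperature, after 16 h compound treatment at 37C of cells pre-plated for 4 h.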
# [13] = qHTS assay for small molecule activators of the heat shock response signaling pathway - cell viability counter screen (AID 743209); conditions: HSE-bla HeLa viability, CellTiter-Glo luminescence, 5 h; activity change, negative = cytotoxicity: at 62.6 µM (top of the series) unless noted; also: potency is read from the fitted curve at half-maximal effect; nearly all actives have a fitted effect of over 50% in size
# In short: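 Cytotoxicity counter screen run in the same wells as the heat-shock bla reporter assay: HeLa HSE-bla cells, 5 h compound exposure at 37 C, viability read by CellTiter-Glo luminescence.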
# [14] = molecular target: Peroxisome proliferator-activated receptor delta (Homo sapiens) (UniProt Q03181); assay: qHTS assay to identify small molecule agonists of the peroxisome proliferator-activated receptor delta (PPARd) signaling pathway (AID 743212; calls by dose curve; also: potency is read from the fitted curve at half-maximal effect); conditions: HEK293H PPARd-UAS-bla, beta-lactamase FRET ratio, 17 h; activation: at 62.6 µM (top of the series) unless noted
# In short: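 Beta-lactamase reporter read by fluorescence (LiveBLAzer B/G FRET, 2 h, room temperature). Test agents, in DMSO, incubated at 37 C with PPARd-bla HEK293H cells.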
# [15] = molecular target: Bile acid receptor (Homo sapiens) (UniProt Q96RI1); assay: qHTS assay to identify small molecule antagonists of the farnesoid-X-receptor (FXR) signaling pathway (AID 743217; active = well fitted inhibition curve with a large enough effect in the signal ratio in the repeat runs, not every such curve was filed as active; inconclusive = weak or mixed curves, or effect the other way; inactive = no such curve, though single readings can be large or run the other way; the % refers to the signal ratio; also: % is scaled to controls: 0 for no effect and ±100 for the full control effect); conditions: HEK293T FXR-UAS-bla, beta-lactamase ratio, CDCA-stimulated, 16 h; activity change, negative = inhibition: at 62.6 µM (top of the series) unless noted
# In short: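 Antagonist mode: chenodeoxycholic acid at 50 uM final stimulates a UAS-driven beta-lactamase reporter in HEK 293T FXR-bla cells during 16 h, 37C compound exposure. Read-out is FRET substrate fluorescence after 2 h at room temperature.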
# [16] = qHTS assay to identify small molecule antagonists of the farnesoid-X-receptor (FXR) signaling pathway - cell viability counter screen (AID 743221; active = well fitted cell-killing curve with a large enough effect in the repeat runs, not every such curve was filed as active; inconclusive = weak or mixed curves, or effect the other way; inactive = no such curve, though single readings can be large or run the other way; also: potency is read from the fitted curve at half-maximal effect; nearly all actives have a fitted effect of over 50% in size); conditions: FXR-bla HEK293T viability, CellTiter-Glo luminescence, 16 h; activity change, negative = cytotoxicity: at 62.6 µM (top of the series) unless noted
# In short: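 HEK 293T FXR-bla cells, 5 h pre-incubation; compound + CDCA 50 uM final, 16 h, 37 C; beta-lactamase FRET read first, then CellTiter-Glo luminescence, 30 min RT.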
# Tags tell the direction and shape of the fitted curve or compound fluorescence and quenching.
# Chain of UniProt Q03181 (Q03181 whole entry, looked up): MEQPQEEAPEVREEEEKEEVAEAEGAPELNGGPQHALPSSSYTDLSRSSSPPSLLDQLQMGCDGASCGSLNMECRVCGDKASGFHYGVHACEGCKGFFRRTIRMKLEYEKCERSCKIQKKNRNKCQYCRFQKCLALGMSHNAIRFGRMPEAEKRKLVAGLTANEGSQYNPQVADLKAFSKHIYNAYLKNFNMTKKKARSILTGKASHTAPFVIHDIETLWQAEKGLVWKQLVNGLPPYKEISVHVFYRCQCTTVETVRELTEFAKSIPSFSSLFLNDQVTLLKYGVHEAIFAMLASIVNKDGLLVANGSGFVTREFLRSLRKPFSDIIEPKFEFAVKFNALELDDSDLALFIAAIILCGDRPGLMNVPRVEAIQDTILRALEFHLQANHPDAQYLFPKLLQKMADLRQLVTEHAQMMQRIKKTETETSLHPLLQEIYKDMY
# Chain of UniProt P37231 (P37231 whole entry, looked up): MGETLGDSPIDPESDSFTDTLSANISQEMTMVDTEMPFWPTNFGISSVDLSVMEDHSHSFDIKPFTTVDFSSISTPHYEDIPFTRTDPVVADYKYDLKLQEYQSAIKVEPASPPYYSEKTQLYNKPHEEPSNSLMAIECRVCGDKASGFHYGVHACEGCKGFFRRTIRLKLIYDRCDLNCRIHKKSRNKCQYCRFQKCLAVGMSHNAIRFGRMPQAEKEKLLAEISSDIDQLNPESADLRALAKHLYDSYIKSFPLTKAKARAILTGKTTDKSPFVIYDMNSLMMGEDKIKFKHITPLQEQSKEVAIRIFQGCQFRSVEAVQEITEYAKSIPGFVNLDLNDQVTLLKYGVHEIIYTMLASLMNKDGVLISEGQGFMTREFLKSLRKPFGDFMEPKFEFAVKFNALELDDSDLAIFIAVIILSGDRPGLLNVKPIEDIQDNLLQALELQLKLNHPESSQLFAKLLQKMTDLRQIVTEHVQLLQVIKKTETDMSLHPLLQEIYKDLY
# Chain of UniProt P11473 (P11473 whole entry, looked up): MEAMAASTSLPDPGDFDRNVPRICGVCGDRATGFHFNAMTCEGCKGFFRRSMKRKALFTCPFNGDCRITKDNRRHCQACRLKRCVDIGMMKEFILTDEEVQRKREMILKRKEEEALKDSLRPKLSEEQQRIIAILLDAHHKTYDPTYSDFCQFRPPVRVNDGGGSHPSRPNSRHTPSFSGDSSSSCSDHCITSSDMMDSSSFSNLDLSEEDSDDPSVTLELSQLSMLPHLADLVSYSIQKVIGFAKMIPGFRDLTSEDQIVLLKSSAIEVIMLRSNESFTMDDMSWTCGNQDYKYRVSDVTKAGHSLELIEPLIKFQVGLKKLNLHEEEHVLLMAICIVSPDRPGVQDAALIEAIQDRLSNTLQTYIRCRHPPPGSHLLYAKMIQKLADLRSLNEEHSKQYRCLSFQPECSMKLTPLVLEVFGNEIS
# Chain of UniProt Q96RI1 (Q96RI1 whole entry, looked up): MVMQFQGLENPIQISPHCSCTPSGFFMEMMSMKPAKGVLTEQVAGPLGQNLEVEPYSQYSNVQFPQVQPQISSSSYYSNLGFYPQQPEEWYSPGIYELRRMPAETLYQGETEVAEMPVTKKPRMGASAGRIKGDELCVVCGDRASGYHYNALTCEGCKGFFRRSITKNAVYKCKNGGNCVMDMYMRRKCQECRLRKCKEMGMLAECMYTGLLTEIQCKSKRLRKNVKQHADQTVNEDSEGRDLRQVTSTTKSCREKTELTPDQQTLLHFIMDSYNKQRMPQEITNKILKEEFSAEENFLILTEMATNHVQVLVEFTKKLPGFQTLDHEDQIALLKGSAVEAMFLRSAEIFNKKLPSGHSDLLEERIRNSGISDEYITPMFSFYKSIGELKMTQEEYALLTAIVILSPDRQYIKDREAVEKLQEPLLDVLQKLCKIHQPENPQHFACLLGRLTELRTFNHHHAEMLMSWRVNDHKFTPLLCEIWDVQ
structure (smiles),measurement,setting,value
O=C(O)Cc1cn(-c2ccccc2)nc1-c1ccc(Cl)cc1,Potency,[1],inactive
same,Potency,[2],"inconclusive: 7.56 µM [activator, partial curve]"
same,Potency,[3],"inconclusive: 33.5 µM [rising, partial curve, poor fit]"
same,activation,[4],inconclusive: 7.09%
CO[C@H]1C=CO[C@@]2(C)Oc3c(C)c(O)c4c(O)c(cc(O)c4c3C2=O)NC(=O)/C(C)=C\C=C/[C@H](C)[C@H](O)[C@@H](C)[C@@H](O)[C@@H](C)[C@H](OC(C)=O)[C@@H]1C,Potency,[1],"inconclusive: 48.9 µM [falling, partial curve]"
same,Potency,[2],"inactive and inconclusive: 6.97 µM [inhibitor, full curve]"
same,"ratio activity, negative = inhibition",[3],inconclusive: -33.6% [at 81.1 µM]
same,Potency,[4],"inconclusive: 9.76 µM [rising, full curve, poor fit]"
same,Potency,[5],"inconclusive: 62.1 µM [cytotoxic, single point]"
same,Potency,[6],"inconclusive: 55.3 µM [inhibitor, single point]"
same,"viability change, negative = cytotoxic",[7],inconclusive: -43.5% [cytotoxic] [at 81.1 µM]
same,Potency,[8],"inconclusive: 12.4 µM [rising, partial curve, poor fit]"
same,Potency,[9],inactive
Nc1cc(S(=O)(=O)O)cc2cc(S(=O)(=O)O)cc(O)c12,Potency,[1],"inconclusive: 19.3 µM [falling, partial curve]"
same,activation,[2],inconclusive: 8.7%
same,activation,[4],inconclusive: -5.88%
same,Potency,[5],inactive
same,Potency,[7],"inconclusive: 0.155 µM [rising, partial curve, poor fit]"
same,Potency,[8],"active: 24.4 µM and inconclusive: 24.5 µM [activator, partial curve]"
same,Potency,[9],inactive
C[n+]1c2cc(N)ccc2cc2ccc(N)cc21 (tested in a mixture with another compound),Potency,[1],"inconclusive: 33.5 µM [rising, single point]"
same,Potency,[2],"inconclusive: 19 µM [rising, partial curve]"
same,Potency,[3],inconclusive: 13.3 µM [full curve]
same,Potency,[10],inconclusive: 13.3 µM [cytotoxic]
same,Potency,[4],"inconclusive: 13.3 µM [rising, partial curve]"
same,Potency,[11],"inconclusive: 7.5 µM [cytotoxic, full curve]"
same,Potency,[5],"inconclusive: 11.9 µM [cytotoxic, partial curve, poor fit]"
same,Potency,[6],"inconclusive: 10.6 µM [rising, partial curve]"
same,Potency,[7],active: 15 µM
same,Potency,[8],"inconclusive: 21.1 µM [rising, partial curve]"
same,Potency,[9],inconclusive: 16.9 µM
same,Potency,[12],"inconclusive: 23.7 µM [cytotoxic, partial curve]"
Nc1nc2ccc([N+](=O)[O-])cc2s1,Potency,[1],"inconclusive: 24.3 µM [falling, partial curve]"
same,Potency,[2],inactive
same,Potency,[3],inconclusive: 24.5 µM [inhibitor]
same,Potency,[10],"inconclusive: 0.0022 µM [rising, full curve, poor fit]"
same,Potency,[4],active: 9.69 µM
same,Potency,[13],"inconclusive: 8.63 µM [cytotoxic, partial curve, poor fit]"
same,Potency,[11],inconclusive: 61.6 µM [cytotoxic]
same,Potency,[14],"inconclusive: 24.5 µM [rising, partial curve, poor fit]"
same,Potency,[5],"inconclusive: 6.16 µM [cytotoxic, full curve, poor fit]"
same,Potency,[6],inconclusive: 21.9 µM [activator]
same,Potency,[7],"inconclusive: 0.0776 µM [rising, full curve, poor fit]"
same,Potency,[8],"inconclusive: 9.77 µM [rising, partial curve]"
same,"activity change, negative = inhibition",[9],inconclusive: 50.8%
CN(C)CCCN1c2ccccc2Sc2ccc(C(F)(F)F)cc21,Potency,[1],active: 23.7 µM
same,activation,[2],inconclusive: -13%
same,Potency,[3],"inconclusive: 15 µM [inhibitor, partial curve]"
same,Potency,[10],"inconclusive: 26.6 µM [cytotoxic, partial curve]"
same,Potency,[4],inconclusive: 33.5 µM
same,Potency,[14],"inconclusive: 18.8 µM [rising, partial curve, poor fit]"
same,Potency,[5],"inconclusive: 29.8 µM [cytotoxic, partial curve, poor fit]"
same,"activity change, negative = inhibition",[15],inconclusive: -23.4%
same,Potency,[7],active: 11.9 µM
same,Potency,[16],"inconclusive: 29.8 µM [falling, single point]"
same,Potency,[8],inactive
same,Potency,[9],"inconclusive: 10.7 µM [inhibitor, partial curve]"
same,Potency,[12],"inconclusive: 16.8 µM [cytotoxic, full curve]"
